Measurements: patent US20250000946A1 (WUXI BIOLOGICS IRELAND, published 2025)
Read-outs that look alike come from different tables or passages of the source.

Tests used:
[1] = target: T1, Human IL-2Rα/β/γ complex (high affinity IL-2 receptor) (human, UniProt P01589 22-272; P14784 27-551; P31785 23-369); test: cell-based or functional assay
T1 sequence (looked up) 1: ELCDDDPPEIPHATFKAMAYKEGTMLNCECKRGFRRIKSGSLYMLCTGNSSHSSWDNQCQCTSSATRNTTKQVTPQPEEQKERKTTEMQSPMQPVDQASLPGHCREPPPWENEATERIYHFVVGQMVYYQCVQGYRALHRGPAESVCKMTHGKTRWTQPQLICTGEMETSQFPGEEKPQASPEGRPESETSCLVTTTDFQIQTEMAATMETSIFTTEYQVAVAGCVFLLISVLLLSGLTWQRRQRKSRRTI
T1 sequence (looked up) 2: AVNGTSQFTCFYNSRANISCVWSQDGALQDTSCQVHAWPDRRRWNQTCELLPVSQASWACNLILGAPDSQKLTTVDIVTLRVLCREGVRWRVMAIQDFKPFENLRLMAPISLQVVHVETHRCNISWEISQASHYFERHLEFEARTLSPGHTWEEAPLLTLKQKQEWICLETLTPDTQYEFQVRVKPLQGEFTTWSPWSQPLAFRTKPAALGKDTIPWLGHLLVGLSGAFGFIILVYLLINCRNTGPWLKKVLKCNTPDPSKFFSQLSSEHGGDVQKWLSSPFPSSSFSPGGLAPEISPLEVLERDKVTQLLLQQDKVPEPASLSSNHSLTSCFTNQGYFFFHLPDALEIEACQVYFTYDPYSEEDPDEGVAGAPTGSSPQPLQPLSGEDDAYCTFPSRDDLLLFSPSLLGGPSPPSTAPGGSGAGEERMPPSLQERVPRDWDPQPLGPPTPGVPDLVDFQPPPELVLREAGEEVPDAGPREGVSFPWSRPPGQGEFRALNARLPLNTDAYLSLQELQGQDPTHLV
T1 sequence (looked up) 3: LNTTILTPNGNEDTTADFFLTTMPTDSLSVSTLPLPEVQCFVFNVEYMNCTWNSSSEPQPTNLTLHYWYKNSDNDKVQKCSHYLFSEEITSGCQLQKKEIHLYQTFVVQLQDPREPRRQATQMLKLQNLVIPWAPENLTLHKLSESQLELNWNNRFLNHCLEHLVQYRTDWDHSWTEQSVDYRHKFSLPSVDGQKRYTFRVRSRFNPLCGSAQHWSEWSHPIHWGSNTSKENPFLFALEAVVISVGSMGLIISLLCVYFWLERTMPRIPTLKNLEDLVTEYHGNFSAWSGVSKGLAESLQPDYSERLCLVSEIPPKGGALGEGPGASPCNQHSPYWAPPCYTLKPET

[2] = target: T2, Human IL-2Rβ/γ (intermediate affinity IL-2 receptor) (human, UniProt P14784 27-551; P31785 23-369); test: cell-based or functional assay
T2 sequence (looked up) 1: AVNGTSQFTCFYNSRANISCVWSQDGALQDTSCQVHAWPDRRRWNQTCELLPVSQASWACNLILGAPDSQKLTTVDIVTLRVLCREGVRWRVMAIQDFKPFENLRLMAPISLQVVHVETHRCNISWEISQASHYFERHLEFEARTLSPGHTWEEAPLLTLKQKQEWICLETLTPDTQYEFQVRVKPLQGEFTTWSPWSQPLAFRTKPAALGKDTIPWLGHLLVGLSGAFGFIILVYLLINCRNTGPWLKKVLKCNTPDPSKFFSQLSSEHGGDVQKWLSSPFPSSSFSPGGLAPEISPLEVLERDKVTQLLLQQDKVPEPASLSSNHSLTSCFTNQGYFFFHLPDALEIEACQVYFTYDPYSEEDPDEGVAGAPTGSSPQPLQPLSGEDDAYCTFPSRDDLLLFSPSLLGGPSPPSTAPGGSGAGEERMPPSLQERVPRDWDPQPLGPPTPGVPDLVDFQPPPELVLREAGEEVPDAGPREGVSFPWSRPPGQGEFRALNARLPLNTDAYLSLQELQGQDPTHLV
T2 sequence (looked up) 2: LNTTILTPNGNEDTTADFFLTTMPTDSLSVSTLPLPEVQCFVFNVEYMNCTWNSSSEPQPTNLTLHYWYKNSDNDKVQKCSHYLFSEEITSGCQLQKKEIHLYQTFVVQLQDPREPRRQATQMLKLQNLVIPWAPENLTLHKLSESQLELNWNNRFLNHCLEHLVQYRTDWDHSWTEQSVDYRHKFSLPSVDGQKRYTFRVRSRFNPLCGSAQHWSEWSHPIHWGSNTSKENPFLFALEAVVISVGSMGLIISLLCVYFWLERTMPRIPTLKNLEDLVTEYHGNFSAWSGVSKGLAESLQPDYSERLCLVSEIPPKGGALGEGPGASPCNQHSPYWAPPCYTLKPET

[3] = target: T2, Human IL-2Rβ/γ (intermediate affinity …); test: FACS, HH cells; EC50 fold vs T2U0.E44-1
Method: (§1) Human cutaneous T cell lymphoma HH cells, malignant non-Hodgkin's lymphoma NK92 cells and cutaneous T cell lymphoma MJ20 cells were used for binding assay. They both constitutively express IL-2Rβ (CD122) and […] (CD132), and NK92 and MJ20 also expresses IL-2Rα (CD25). HH, NK92 and MJ20 cells were cultured following ATCC guidance, then transferred to a 96-plate for binding analysis. Cells were incubated with IL-2/Fc fusion proteins at the indicated concentrations for 30 min at 4° C. to avoid internalization. Binding was detected by 2nd antibody of PE-anti-human Fc at 4° C. for another 30 min. The median fluorescence intensity (MFI) on HH and NK92 cells was measured using FACS.

[4] = target: T2, Human IL-2Rβ/γ (intermediate affinity …); test: FACS, HH cells
Method: as §1

[5] = target: T1, Human IL-2Rα/β/γ complex (high affinity …); test: FACS, MJ20 cells; EC50 fold vs T2U0.E44-1
Method: as §1
Mutations of F42 or R38 were involved in T2U0.E44-26 to generate IL-2 variants.

[6] = target: T2, Human IL-2Rβ/γ (intermediate affinity …); test: FACS, HH cells; EC50 fold vs T2U0.E44-1; remark: listed apart in the source
Method: as §1
IL-2 variants of T2U0.E44-6 and T2U0.E44-26 were used to construct bivalent variants W3XX115-T2.Z20-1.uIgG4V322 and W3XX115-T2.Z20-2.uIgG4V322 respectively.

[7] = target: T1, Human IL-2Rα/β/γ complex (high affinity …); test: cell-based or functional assay; remark: listed apart in the source
[8] = target: T2, Human IL-2Rβ/γ (intermediate affinity …); test: cell-based or functional assay; remark: listed apart in the source
[9] = target: T1, Human IL-2Rα/β/γ complex (high affinity …); test: cell-based or functional assay; remark: listed apart in the source
[10] = target: T2, Human IL-2Rβ/γ (intermediate affinity …); test: cell-based or functional assay; remark: listed apart in the source
[11] = target: T1, Human IL-2Rα/β/γ complex (high affinity …); test: FACS, MJ20 cells
Method: as §1
Affinity of IL-2 variants to IL-2Rα/β/γ supported the same results (FIG. 8 and Table 7). […] And T2U0.E44-26, T2U0.E44-27, T2U0.E44-29 and T2U0.E44-30 induced hundreds to thousands affinity reduction in Treg compared to T2U0.E44-1. Binding curves in MJ20 cells (IL-2Rα/β/γ) also achieved similar trend (FIG. 8b). As a result, the method of C-terminal truncation and substitution of 129 was available to achieve IL-2Rβγ attenuated IL-2 variants.

Potency in human Treg EC50 [1]: 2 pM
Potency reduction (Treg) [1]: 1 fold
Potency in human CD8+ T EC50 [2]: 10.2 nM
Potency reduction (CD8+ T) [2]: 1 fold
Affinity reduction [3]: 1 fold
EC50 [4]: 50.5 nM
Affinity reduction [5]: 1 fold
Affinity reduction [6]: 1 fold
Potency EC50, STAT5 phosphorylation in Treg (column headed Human CD8+ T; paragraph 375 gives these values for Treg) [7]: 7 pM
Potency reduction, Treg (column headed Human CD8+ T) [7]: 1 fold
Potency EC50, STAT5 phosphorylation in CD8+ T (column headed Human Treg; paragraph 375 gives these folds for CD8+ T) [8]: 11.4 nM
Potency reduction, CD8+ T (column headed Human Treg) [8]: 1 fold
Potency in human Treg EC50 [9]: 2.5 pM
Potency reduction (Treg) [9]: 1 fold
Potency in human CD8+ T EC50 [10]: 20 nM
Potency reduction (CD8+ T) [10]: 1 fold
EC50 [11]: 14 nM
B1: W3XX115-T2U0.E44-1.uIgG4V322 (Fc fusion)
chain: [no letters for about 150 residues]ESKYGPPCPPCPAPEAAGGPSVFLFPPKPKDTLMISRTPEVTCVVVDVSQEDPEVQFNWYVDGVEVHNAKTKPREEQFNSTYRVVSVLTVLHQDWLNGKEYKCKVSNKGLPSSIEKTISKAKGQPREPQVYTLPPCQEEMTKNQVSLWCLVKGFYPSDIAVEWESNGQPENNYKTTPPVLDSDGSFFLYSRLTVDKSRWQEGNVFSCSVMHEALHNHYTQKSLSLSLG
heavy: EIQLQQSGPELVKPGASVKVSCKASGYSFTDYNMYWVKQSHGESLEWIGYIDPYNGGTRYNQKFKGKATLTVDKSSSTAFMHLNSLTSEDSAVYYCARNGHWDGAWFAYWGQGTLVTVSAASTKGPSVFPLAPCSRSTSESTAALGCLVKDYFPEPVTVSWNSGALTSGVHTFPAVLQSSGLYSLSSVVTVPSSSLGTKTYTCNVDHKPSNTKVDKRVESKYGPPCPPCPAPEAAGGPSVFLFPPKPKDTLMISRTPEVTCVVVDVSQEDPEVQFNWYVDGVEVHNAKTKPREEQFNSTYRVVSVLTVLHQDWLNGKEYKCKVSNKGLPSSIEKTISKAKGQPREPQVCTLPPSQEEMTKNQVSLSCAVKGFYPSDIAVEWESNGQPENNYKTTPPVLDSDGSFFLVSRLTVDKSRWQEGNVFSCSVMHEALHNHYTQKSLSLSLG
light: DIQMNQSPSSLSASLGDTITITCHASQNINVWLSWYQQKPGNIPKLLIYKASNLHTGVPSRFSGSRSGTGFTLTISSLQPEDIATYYCHQGQSYPFTFGSGTKLEIKRTVAAPSVFIFPPSDEQLKSGTASVVCLLNNFYPREAKVQWKVDNALQSGNSQESVTEQDSKDSTYSLSSTLTLSKADYEKHKVYACEVTHQGLSSPVTKSFNRGEC
notes: WT IL-2, no linker, IgG4 Fc with FALA, one Fab arm (E44 format); also called T20.E44-1; wild-type IL-2
